Hit rate of the full screen: of about 310,000 compounds, about 2,200 (0.71%) showed an effect of 50% or more. Effects have a minus sign here. The list shows a part of the results.
biological target: human ether-à-go-go-related gene (hERG) potassium channel (human, UniProt Q12809); test: primary screen, population patch clamp on CHO cells stably expressing hERG
Sequence (Q12809 whole entry, looked up): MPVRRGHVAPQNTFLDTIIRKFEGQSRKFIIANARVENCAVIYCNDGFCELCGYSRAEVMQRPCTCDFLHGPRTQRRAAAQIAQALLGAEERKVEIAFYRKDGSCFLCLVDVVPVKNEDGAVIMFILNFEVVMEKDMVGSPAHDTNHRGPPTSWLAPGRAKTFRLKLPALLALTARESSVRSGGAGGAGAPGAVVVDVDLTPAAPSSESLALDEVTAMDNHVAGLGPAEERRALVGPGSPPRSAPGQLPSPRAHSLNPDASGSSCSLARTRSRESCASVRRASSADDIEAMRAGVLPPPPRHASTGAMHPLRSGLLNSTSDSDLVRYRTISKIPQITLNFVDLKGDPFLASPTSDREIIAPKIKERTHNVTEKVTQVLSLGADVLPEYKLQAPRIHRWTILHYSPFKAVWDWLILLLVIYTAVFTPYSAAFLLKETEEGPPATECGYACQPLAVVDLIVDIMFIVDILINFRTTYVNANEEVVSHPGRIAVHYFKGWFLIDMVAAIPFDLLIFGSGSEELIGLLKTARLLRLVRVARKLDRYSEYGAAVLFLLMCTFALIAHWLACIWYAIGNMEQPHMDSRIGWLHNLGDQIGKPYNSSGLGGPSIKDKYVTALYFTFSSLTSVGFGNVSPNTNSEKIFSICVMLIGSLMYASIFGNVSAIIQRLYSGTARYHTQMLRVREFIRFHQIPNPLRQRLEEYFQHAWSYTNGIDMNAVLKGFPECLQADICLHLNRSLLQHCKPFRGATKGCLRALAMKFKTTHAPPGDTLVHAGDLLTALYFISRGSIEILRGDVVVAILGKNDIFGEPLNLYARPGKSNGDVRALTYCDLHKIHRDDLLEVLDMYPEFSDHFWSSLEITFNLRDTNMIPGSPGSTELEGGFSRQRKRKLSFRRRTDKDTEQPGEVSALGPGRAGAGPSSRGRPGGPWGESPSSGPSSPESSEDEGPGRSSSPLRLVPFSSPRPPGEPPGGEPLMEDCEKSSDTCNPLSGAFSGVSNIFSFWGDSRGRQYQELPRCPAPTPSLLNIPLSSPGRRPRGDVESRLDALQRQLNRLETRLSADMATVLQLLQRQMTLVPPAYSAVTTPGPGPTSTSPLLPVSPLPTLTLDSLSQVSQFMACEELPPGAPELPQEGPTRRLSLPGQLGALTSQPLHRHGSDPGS

| Compound | hERG current change (%, negative = inhibition) at 1uM [%] |
| --- | --- |
| CCOc1ccc(-n2c(O)c(C=Nc3ccc(NC(C)=O)cc3)c(=O)[nH]c2=O)cc1 | 6.61 |
| N#CC1=C(N)N(c2ccc(Oc3ccccc3)cc2)C(=O)C1 | 3.02 |
| COc1ccccc1C(=O)Nc1ccc(N2CCCCC2)cc1 | 1.06 |
| CS(=O)(=O)N(CC(=O)NCc1ccc2c(c1)OCO2)c1ccc(Cl)cc1 | 6.98 |
| CCOC(=O)[C@@H]1[C@H]2COc3cc(OC)ccc3[C@@H]2N2C(=O)N(c3ccc(C)cc3)C(=O)[C@]12C | 10.1 |
| O=S(=O)(NCc1cccs1)c1ccc(Cl)s1 | 16.1 |
| O=C(NNc1ccccc1[N+](=O)[O-])Nc1cccc(Cl)c1 | 17.2 |
| O=C(NNC1CC(=O)N(c2ccc(Br)cc2)C1=O)c1ccco1 (stereo not drawn) | 13.4 |
| O=C(CSc1nnc(-c2ccccc2)n1Cc1ccco1)Nc1ccc2c(c1)OCCO2 | 8.16 |
| O=C(c1ccc(Br)cc1)c1cc([N+](=O)[O-])ccc1N1CCCCC1 | 2.24 |
| COc1cccc(C2=NOC(C(=O)Nc3cccnc3Cl)C2)c1OC (stereo not drawn) | 14.2 |
| COC(=O)c1ccc(C(=O)OC)c(NC(=O)CN2CCC(C)CC2)c1 | 28 |
| Cc1cc(N2CCCC2=O)ccc1S(=O)(=O)NC1CCCCC1 | 13.2 |
| c1ccc(COCC2CCNCC2)cc1 | 17.8 |
| COc1ccc([N+](=O)[O-])c(S(=O)(=O)c2ccccc2)n1 | 11.3 |
| CSc1cccc(NC(=O)C2CCN(C(=O)c3ccccc3C)CC2)c1 | 12.3 |
| CCCSc1ccc(-c2nn(-c3ccccc3)cc2/C=C(/C#N)C(=O)NCCCOC)cc1 | 6.97 |
| O=C(CCN1C(=O)/C(=C/c2ccc(Cl)cc2)SC1=S)NC1C=CS(=O)(=O)C1 (stereo not drawn) | -2.52 |
| COc1ccc(NC(=O)CN2C(=O)NC3(CCCC3)C2=O)cc1OC | 13.7 |
| COc1ccccc1NC(=O)Cn1c2ccc(F)cc2c2nc3n(c(=O)c21)CCS3 | 9.38 |
| O=C1CC(Sc2ccc(Cl)cc2)C(=O)N1c1ccc2c(c1)OCCO2 (stereo not drawn) | 14.3 |
| COc1ccc(-c2csc(NC(=O)Nc3ccccc3)n2)cc1 | 13.3 |
| CCOC(=O)C(O)(CC(=O)c1ccc(Cl)cc1)C(=O)OCC | 7.58 |

| Compound | hERG current change (%, negative = inhibition) at 1uM [%] |
| --- | --- |
| O=C(CCCn1c(=S)[nH]c2ccsc2c1=O)NCCc1ccccc1 | 14.2 |
| O=C(NCc1ccco1)C(NS(=O)(=O)c1cccc2nsnc12)c1ccccc1 (stereo not drawn) | 7.81 |
| O=C(c1ccc(-c2ccccc2)c(F)c1)C1CCCN(CCCn2cccn2)C1 (stereo not drawn) | -38.6 |
| CN1CCN(C2=Cc3ccccc3Sc3cc(F)c(F)cc32)CC1.CS(=O)(=O)O | 6.5 |
| Cc1cccc(OCc2nc(-c3ccc(-n4cccc4)cc3)no2)c1 | 12.2 |
| O=C(CN1CCN(c2ncccn2)CC1)NCc1ccc2c(c1)OCO2 | 13.7 |
| O=C(CSc1nnnn1-c1ccccc1)Nc1ccc(Cl)cc1 | -9.11 |
| CC1(C)C(=O)NCCN1C(=O)CCCC(=O)O | 1.31 |
| CCOc1c(Br)cc(CNc2ncn[nH]2)cc1OC | 9.07 |
| CCCc1cc(NCCCN2CCOCC2)n2c(nc3ccccc32)c1C#N | -37 |
| CCCCc1nc2ccccc2c(=O)n1-c1ccccc1[N+](=O)[O-] | 10.5 |
| CCOC(=O)c1c(NC(=O)CSc2n[nH]c(-c3ccco3)n2)sc(C)c1C | 10.3 |
| COc1ccc2c(c1OC)C(=O)OC2CC(=O)c1ccc(O)cc1 (stereo not drawn) | 5.01 |
| Cc1cc(C)c(Cn2c3ccccc3c3cnn(CC(=O)NCCN4CCOCC4)c(=O)c32)c(C)c1 | 11.5 |
| C=CCn1c(O)c(C(CC)=NC2CC2)c(=O)[nH]c1=O | 7.5 |
| Cc1ccc(NC(=O)c2nnn(-c3ccc4c(c3)OCCO4)c2N)cc1 | 13.9 |
| COC(=O)c1ccc(C(=O)OC)c(NC(=O)c2cccnc2)c1 | 10.6 |
| Cc1ccsc1C1C(C#N)=C(N)OC2=C1C(=O)CC(C)(C)C2 (stereo not drawn) | 3.48 |
| CC(=O)[C@H]1[C@H](C#N)C[C@H]2[C@@H]3CC=C4C[C@@H](O)CC[C@]4(C)[C@H]3CC[C@@]21C | 13.8 |
| CC(=O)c1ccc(NC(=O)CCc2c(C)nn(-c3ccc(N4CCOCC4)nn3)c2C)cc1 | 11.4 |
| O=C(O)CCCc1nc(-c2ccc(Cl)cc2)no1 | 2.59 |
| NC(=S)COc1ccccc1 | 11.6 |
| C#CC[N+]1(C)[C@@H]2CC(OC(=O)C(CO)c3ccccc3)C[C@H]1C(O)C2.[Br-] (stereo partly drawn) | 2.35 |

| Compound | hERG current change (%, negative = inhibition) at 1uM [%] |
| --- | --- |
| O=C(NCCO)/C(=C\c1ccco1)NC(=O)c1ccco1 | 3.44 |
| COc1ccc(Cl)cc1C(=O)CSc1nc(N)cc(N)n1 | 6.37 |
| CN(Cc1cc(=O)n2ccsc2n1)Cc1nc2ccccc2c(=O)[nH]1 | 4.7 |
| NC(=O)c1ccccc1NC(=O)CCCCCn1nnc2ccccc2c1=O | 4.56 |
| CN1CCN(c2ccc(NC(=O)c3cc([N+](=O)[O-])ccc3N3CCOCC3)cc2)CC1 | -5.88 |
| CCCCc1nnc(NC(=O)CSc2nc(N)cc(=O)[nH]2)s1 | 11.1 |
| Cc1c2cn[nH]c(=O)c2c(C)n1Cc1ccc(F)cc1 | 7.34 |
| O=C(/C=C/Nc1cccc(C(F)(F)F)c1)c1ccco1 | 11.2 |
| O=C(CN1CCN(Cc2ccccc2Cl)CC1)N/N=C/c1cccs1 | 9.84 |
| CCCCc1c(C)nc(N)[nH]c1=O | 14.5 |
| CC(C)Oc1ccc(C2CC(=O)N(c3cccc(C(=O)O)c3)C2=O)cc1 (stereo not drawn) | 12.9 |
| Cc1nonc1C(=O)N/N=C/c1ccc(O)cc1O | 11.7 |
| COc1cccc(-n2nnc3c(=O)n(C/C=C/c4ccccc4)cnc32)c1 | 3.43 |
| C=CCC1(N(C(C)=O)c2ccccc2)CCCCC1 | -6.45 |
| COc1cc(-c2nc3ccccn3c2/N=C/c2cccc(OC)c2O)ccc1O | 3.1 |
| CC(c1nc2ccccc2c(=O)[nH]1)N(C)CCOc1ccc(Cl)cc1 (stereo not drawn) | 3.02 |
| CCCn1c(SCc2nc(N)nc(N3CCCCC3)n2)nc2c1c(=O)n(C)c(=O)n2C | 5.4 |
| COc1ccc(C(=O)C(C)OC(=O)c2sc(C)nc2C)cc1 (stereo not drawn) | 10 |
| Cc1c(N=C(N)/N=C(\N)Nc2ccccc2)c(=O)n(-c2ccccc2)n1C | 6.7 |
| Cc1ccc(Cn2ccc(NC(=O)CCSc3nc(-c4ccco4)cc(C(F)(F)F)n3)n2)cc1 | 4.4 |
| Cc1ccc(-n2c(CCc3ccccc3)n[nH]c2=S)cc1C | 11.7 |
| Cc1c(C(C)C)c(=O)n(-c2ccc(S(=O)(=O)N3CCOCC3)cc2)n1C | 8.06 |
| COc1ccc(CCNC(=O)CSc2nnc(-c3ccccc3)o2)cc1OC | 0.157 |

| Compound | hERG current change (%, negative = inhibition) at 1uM [%] |
| --- | --- |
| COc1ccc(-n2c(SCC(=O)NCCCN3CCCC3=O)nnc2C(C)N2CCCCC2)cc1 (stereo not drawn) | 15 |
| N#CC1=C(N)Oc2n[nH]c(-c3cccs3)c2C1c1ccco1 (stereo not drawn) | 16.8 |
| CCOC(=O)c1cc2c(=O)c3cc(C)ccc3oc2nc1C | 14.8 |
| Cn1c(=O)n(/N=C/c2ccccc2)c2ccccc21 | 9.38 |
| CCCNC(=O)N(C)c1nncnc1C(=O)NC | 5.97 |
| CC(C)(C)c1cccc(OCCCSc2ncccn2)c1 | 1.69 |
| COC(=O)c1ccccc1NC(=O)Nc1ccc(Br)cn1.Cl | 13.1 |
| CCCOc1ccc(N2C(=O)CC(N(CCc3ccccc3)C(=O)c3ccccc3)C2=O)cc1 (stereo not drawn) | 12.9 |
| CCc1ccccc1NC(=O)NCc1ccccn1 | 12 |
| Cc1ccccc1C(=O)N1CCC(C(=O)N2CCN(c3ncccn3)CC2)CC1 | 8.94 |
| O=S(=O)(c1ccccc1)c1nc(-c2ccccc2Cl)oc1NCCN1CCOCC1 | 1.14 |
| CCCOc1ccc(/C=N/NC(=O)c2ccc3c(c2)OCO3)c(OCCC)c1 | 8.54 |
| COc1ccc(COC(=O)CCc2c[nH]c3ccccc23)cc1F | 17.6 |
| N#CC1=C(N)OC2=C(C(=O)CCC2)C12C(=O)N1CCCc3cccc2c31 (stereo not drawn) | 8.35 |
| CCCN1C2CCCC1CC(NC(=O)c1cccc([N+](=O)[O-])c1)C2 (stereo not drawn) | -4.26 |
| Cc1ccc2c(c1)c(=O)c1c3n2CCN(CC#N)C3CC1 (stereo not drawn) | 12.3 |
| Cc1ccc(S(=O)(=O)N2CCOCC2)cc1C(=O)N1CCN(S(=O)(=O)c2cccc(F)c2)CC1 | 10.9 |
| O=C1CCN(CCc2ccccc2)CCN1CCO | 9.41 |
| COc1cccc(C(=O)NCCS(=O)(=O)N2CCCC2)c1 | -3.42 |
| COc1ccc(C(=O)NCCN2CCOCC2)c(OC)c1 | 15 |
| COc1cc(C2c3[nH]c4ccccc4c3CCN2Cc2cn(C)nc2C)ccc1F (stereo not drawn) | 13.9 |

Source: paper PMC4336329 (PLoS ONE, 2015)
